In patent publication US20240148898A1 (CELLEMEDY, published 2024):

Legend:
[1] = biological target: T1, human transferrin receptor (human, UniProt P02786); test: MST (Monolith NT.115), His-tag-dye-labelled protein, TfR titrated
T1 construct: also called TfR Human
Procedure: (§1) First, 100 μl of dye that specifically binds to a hexa-His tag (RED-tris-NTA 2nd Generation Dye) was prepared at a concentration of 50 nM, along with 100 μl of the produced protein at a concentration of 200 nM, followed by mixing the same and incubating at room temperature for 30 minutes. The incubated product was centrifuged at 13000 rpm for 10 minutes at 4° C. by a centrifuge, thus to separate the supernatant and obtain a dye-labeled protein.
(§2) Then, 25 μl of 9.65 μM transferrin receptor was added to the 1st PCR tube; 10 μl of PBS-T (PBS+0.5% tween 20) buffer was added to 2nd to 16th PCR tubes; 10 μl of transferrin in the 1st PCR tube was transferred to the 2nd PCR tube; and 10 μl was again transferred from the 2nd PCR tube to the 3rd PCR tube. Likewise, this procedure was continued up to the 16th tube thus to perform ½ dilution in a sequential order so that each of the 2nd to 16th PCR tubes becomes 20 μl.
(§3) Thereafter, 10 μl of the dye-labeled protein was added to each PCR tube, and the reaction was performed at room temperature for 1 hour.

[2] = biological target: T2, mouse transferrin receptor (mouse, UniProt Q62351); test: as above
T2 construct: also called TfR Mouse
T2 sequence (Q62351 89-763 limits assumed): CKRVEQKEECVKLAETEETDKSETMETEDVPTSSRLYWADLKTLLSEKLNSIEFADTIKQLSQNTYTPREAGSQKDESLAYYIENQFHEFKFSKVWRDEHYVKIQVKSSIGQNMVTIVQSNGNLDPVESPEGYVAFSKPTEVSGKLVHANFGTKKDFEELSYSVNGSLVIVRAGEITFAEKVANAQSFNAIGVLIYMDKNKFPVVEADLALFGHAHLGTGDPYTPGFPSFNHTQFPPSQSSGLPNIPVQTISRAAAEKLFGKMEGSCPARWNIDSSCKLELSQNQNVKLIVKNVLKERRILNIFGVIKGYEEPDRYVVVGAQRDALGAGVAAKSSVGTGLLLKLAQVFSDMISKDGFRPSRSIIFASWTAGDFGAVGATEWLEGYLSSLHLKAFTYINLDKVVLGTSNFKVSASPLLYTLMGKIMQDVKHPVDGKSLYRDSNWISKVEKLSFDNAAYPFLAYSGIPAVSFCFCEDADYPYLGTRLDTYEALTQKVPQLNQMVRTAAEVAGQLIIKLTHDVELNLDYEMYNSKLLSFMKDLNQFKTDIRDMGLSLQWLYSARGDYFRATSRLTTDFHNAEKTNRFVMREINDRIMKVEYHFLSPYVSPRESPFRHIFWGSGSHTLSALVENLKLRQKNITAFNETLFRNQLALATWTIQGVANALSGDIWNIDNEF
Procedure: as §1, §2, §3

[3] = biological target: T3, transferrin receptor (TfR), species not stated; test: Microscale Thermophoresis (MST) with the transferrin receptor, Example 5; species of TfR not given on the sheet or in the legend (value coincides with the Mouse TfR row of Table 5)
T3 construct: also called the transferrin receptor

B1: N-gp100-huHF (other)
chain: not shown
notes: also called gp100-huHF (N-terminus); TSA insertion site N, gp100
[1]
  Kd: 18.5 nM
[2]
  Kd: 48.3 nM
[3]
  Kd: 48.3 nM

B2: N-AH1-huHF (other)
chain: not shown
notes: also called AH1-huHF (N-terminus); TSA insertion site N, AH1
[1]
  Kd: 84.6 nM
